# Results taken from the supplement of paper PMC8728848.
# The other results are listed elsewhere or left out.
# B1: TES70 (Toxocara canis), Q9XYV5 (protein)
# chain: MISVVLVAIALQISGSYAGACNSINDCGLFETCVNNMCVPDNMGCPMPCQAGQVCVPPNCVAAPAPQPVTTTTAAATTTTSARGRCNANAQCGAFEVCVNGMCQPNNAGCNPPCAANQVCVAPNCVPAPIPPPAQSTTTAPATTRAPPSCPPSWSPFSGHCYYVAVGSFLFNQASDWCTQTNSRPVWFDQSNVGTFGAELYFINVLAASRGVQTYWLGLNRQFGQWVWTNGSPLIFSNWRGSEPDGCCGGNVTCALVNYANPFGQWDDAGCGNIWRNPQGFICKKPLA
# Key:
# Experiment in all cases: glycan array binding signal (z-score within array); higher = stronger binding
# Settings in all cases: glycan notation: IUPAC condensed, linker removed
# [1] = biological target: Glc(b1-4)Glc
# How it was run: (§1)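 Glycan array data came from 3228 arrays in the Consortium for Functional Glycomics database, and only arrays with an available protein sequence were kept. Glycan names were put into IUPAC-condensed notation, and columns mapping to the same glycan were averaged. The binding signal is a within-array Z-score, averaged across arrays of one protein sequence run at different concentrations or buffers and across linkers. A negative Z-score can be read as non-binding.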
# [2] = biological target: Glc(b1-6)Glc
# How it was run: as §1
# [3] = biological target: GlcNAc(b1-2)Gal(b1-3)GalNAc
# How it was run: as §1
# [4] = biological target: GlcNAc(b1-3)Gal
# How it was run: as §1
# [5] = biological target: GlcNAc(b1-3)Gal(b1-3)GalNAc
# How it was run: as §1
# [6] = biological target: GlcNAc(b1-3)Gal(b1-4)Glc
# How it was run: as §1
# [7] = biological target: GlcNAc(b1-3)Gal(b1-4)GlcNAc
# How it was run: as §1
# [8] = biological target: GlcNAc(b1-3)[GlcNAc(b1-6)]GalNAc
# How it was run: as §1
# [9] = biological target: GlcNAc(b1-3)[GlcNAc(b1-6)]GlcNAc(b1-4)GlcNAc
# How it was run: as §1
# [10] = biological target: GlcNAc(b1-4)GlcNAc(b1-4)GlcNAc
# How it was run: as §1
# [11] = biological target: GlcNAc(b1-4)[GlcNAc(b1-6)]GalNAc
# How it was run: as §1
# [12] = biological target: GlcNAc(b1-6)GalNAc
# How it was run: as §1
# [13] = biological target: Kdn(a2-3)Gal(b1-3)GlcNAc
# How it was run: as §1
# [14] = biological target: Kdn(a2-3)Gal(b1-4)GlcNAc
# How it was run: as §1
# [15] = biological target: Man(a1-2)Man(a1-2)Man(a1-3)Man
# How it was run: as §1
# [16] = biological target: Man(a1-2)Man(a1-2)Man(a1-6)[Man(a1-3)]Man
# How it was run: as §1
# [17] = biological target: Man(a1-2)Man(a1-3)Man
# How it was run: as §1
# [18] = biological target: Man(a1-2)Man(a1-3)[Man(a1-2)Man(a1-6)]Man
# How it was run: as §1
# [19] = biological target: Man(a1-2)Man(a1-3)[Man(a1-2)Man(a1-6)]Man(a1-6)[Man(a1-2)Man(a1-2)Man(a1-3)]Man(b1-4)GlcNAc(b1-4)GlcNAc
# How it was run: as §1
# [20] = biological target: Man(a1-2)Man(a1-3)[Man(a1-2)Man(a1-6)]Man(a1-6)[Man(a1-3)[Man(a1-6)]Man(a1-6)]Man(b1-4)GlcNAc(b1-4)GlcNAc
# How it was run: as §1
# [21] = biological target: Man(a1-2)Man(a1-3)[Man(a1-6)]Man(a1-6)[Man(a1-2)Man(a1-3)]Man(b1-4)GlcNAc(b1-4)GlcNAc
# How it was run: as §1
# [22] = biological target: Man(a1-2)Man(a1-6)[Man(a1-3)]Man(a1-6)[Man(a1-2)Man(a1-2)Man(a1-3)]Man(b1-4)GlcNAc(b1-4)GlcNAc
# How it was run: as §1
# [23] = biological target: Man(a1-3)[Man(a1-6)]Man
# How it was run: as §1
# [24] = biological target: Man(a1-3)[Man(a1-6)]Man(a1-6)[Man(a1-3)]Man(b1-4)GlcNAc(b1-4)GlcNAc
# How it was run: as §1
# [25] = biological target: Neu5Ac(a2-3)Gal
# How it was run: as §1
# [26] = biological target: Neu5Ac(a2-3)Gal(b1-3)GalNAc
# How it was run: as §1
# [27] = biological target: Neu5Ac(a2-3)Gal(b1-3)GalNAc6S
# How it was run: as §1
# [28] = biological target: Neu5Ac(a2-3)Gal(b1-3)GlcNAc
# How it was run: as §1
# [29] = biological target: Neu5Ac(a2-3)Gal(b1-3)[Fuc(a1-4)]GlcNAc
# How it was run: as §1
# [30] = biological target: Neu5Ac(a2-3)Gal(b1-3)[Neu5Ac(a2-3)Gal(b1-4)]GlcNAc
# How it was run: as §1
# [31] = biological target: Neu5Ac(a2-3)Gal(b1-3)[Neu5Ac(a2-6)]GalNAc
# How it was run: as §1
# [32] = biological target: Neu5Ac(a2-3)Gal(b1-4)Glc
# How it was run: as §1
# [33] = biological target: Neu5Ac(a2-3)Gal(b1-4)GlcNAc
# How it was run: as §1
# [34] = biological target: Neu5Ac(a2-3)Gal(b1-4)GlcNAc(b1-3)Gal(b1-4)GlcNAc
# How it was run: as §1
# [35] = biological target: Neu5Ac(a2-3)Gal(b1-4)GlcNAc(b1-3)Gal(b1-4)GlcNAc(b1-3)Gal(b1-4)GlcNAc
# How it was run: as §1
# [36] = biological target: Neu5Ac(a2-3)Gal(b1-4)GlcNAc6S
# How it was run: as §1
# [37] = biological target: Neu5Ac(a2-3)Gal(b1-4)[Fuc(a1-3)]GlcNAc
# How it was run: as §1
# [38] = biological target: Neu5Ac(a2-3)Gal(b1-4)[Fuc(a1-3)]GlcNAc(b1-3)Gal
# How it was run: as §1
# [39] = biological target: Neu5Ac(a2-3)Gal(b1-4)[Fuc(a1-3)]GlcNAc(b1-3)Gal(b1-4)GlcNAc
# How it was run: as §1
# [40] = biological target: Neu5Ac(a2-3)Gal(b1-4)[Fuc(a1-3)]GlcNAc(b1-3)Gal(b1-4)[Fuc(a1-3)]GlcNAc(b1-3)Gal(b1-4)[Fuc(a1-3)]GlcNAc
# How it was run: as §1
# [41] = biological target: Neu5Ac(a2-3)Gal(b1-4)[Fuc(a1-3)]GlcNAc6S
# How it was run: as §1
# [42] = biological target: Neu5Ac(a2-3)Gal6S(b1-4)GlcNAc
# How it was run: as §1
# [43] = biological target: Neu5Ac(a2-3)GalNAc
# How it was run: as §1
# [44] = biological target: Neu5Ac(a2-3)[GalNAc(b1-4)]Gal(b1-4)Glc
# How it was run: as §1
# [45] = biological target: Neu5Ac(a2-3)[GalNAc(b1-4)]Gal(b1-4)GlcNAc
# How it was run: as §1
binder,measurement,setting,value
B1,glycan array binding signal (z-score),[1],-0.156
same,glycan array binding signal (z-score),[2],-0.202
same,glycan array binding signal (z-score),[3],-0.136
same,glycan array binding signal (z-score),[4],-0.121
same,glycan array binding signal (z-score),[5],-0.063
same,glycan array binding signal (z-score),[6],-0.074
same,glycan array binding signal (z-score),[7],-0.134
same,glycan array binding signal (z-score),[8],-0.172
same,glycan array binding signal (z-score),[9],-0.115
same,glycan array binding signal (z-score),[10],-0.18
same,glycan array binding signal (z-score),[11],0.013
same,glycan array binding signal (z-score),[12],-0.124
same,glycan array binding signal (z-score),[13],-0.171
same,glycan array binding signal (z-score),[14],-0.044
same,glycan array binding signal (z-score),[15],-0.121
same,glycan array binding signal (z-score),[16],-0.17
same,glycan array binding signal (z-score),[17],-0.064
same,glycan array binding signal (z-score),[18],-0.129
same,glycan array binding signal (z-score),[19],-0.157
same,glycan array binding signal (z-score),[20],-0.12
same,glycan array binding signal (z-score),[21],-0.175
same,glycan array binding signal (z-score),[22],-0.137
same,glycan array binding signal (z-score),[23],-0.096
same,glycan array binding signal (z-score),[24],-0.136
same,glycan array binding signal (z-score),[25],-0.121
same,glycan array binding signal (z-score),[26],0.672
same,glycan array binding signal (z-score),[27],-0.145
same,glycan array binding signal (z-score),[28],-0.172
same,glycan array binding signal (z-score),[29],-0.149
same,glycan array binding signal (z-score),[30],-0.196
same,glycan array binding signal (z-score),[31],-0.065
same,glycan array binding signal (z-score),[32],-0.144
same,glycan array binding signal (z-score),[33],-0.159
same,glycan array binding signal (z-score),[34],-0.152
same,glycan array binding signal (z-score),[35],-0.085
same,glycan array binding signal (z-score),[36],-0.168
same,glycan array binding signal (z-score),[37],-0.164
same,glycan array binding signal (z-score),[38],-0.112
same,glycan array binding signal (z-score),[39],-0.048
same,glycan array binding signal (z-score),[40],-0.165
same,glycan array binding signal (z-score),[41],-0.164
same,glycan array binding signal (z-score),[42],-0.176
same,glycan array binding signal (z-score),[43],-0.169
same,glycan array binding signal (z-score),[44],-0.101
same,glycan array binding signal (z-score),[45],-0.126
